The campaign covered roughly 280,000 compounds. About 100 (0.036%) were called active. Inconclusive means that the source gave no clear call. Such entries were picked first, then a sample of the others. Calls follow the shape of the dose curve; as a rule, active = well fitted inhibition curve with a large enough effect in the signal ratio, with a control signal flat (not every such curve was filed as active); inconclusive = small, poorly fitted or top-dose-only effect, or effect the other way, or a change in a side signal; inactive = no such curve, though single readings can be large or run the other way; the % refers to the signal ratio. Potencies beside an inconclusive call are fits to weak or partial responses and may not hold up. “Side channel” marks fits to a control or component signal instead of the main read-out.
These compounds were tested against Muscleblind-like protein 1 (Homo sapiens) (UniProt Q9NR56) (assay: qHTS Assay for Inhibitors of MBNL1-poly(CUG) RNA binding). Conditions: TR-FRET MBNL1-His/biotin-(CUG)12 binding, 665/545 ratio; activity change, negative = inhibition: at 57.5 µM (top of the series).
Chain of UniProt Q9NR56 (Q9NR56 whole entry, looked up): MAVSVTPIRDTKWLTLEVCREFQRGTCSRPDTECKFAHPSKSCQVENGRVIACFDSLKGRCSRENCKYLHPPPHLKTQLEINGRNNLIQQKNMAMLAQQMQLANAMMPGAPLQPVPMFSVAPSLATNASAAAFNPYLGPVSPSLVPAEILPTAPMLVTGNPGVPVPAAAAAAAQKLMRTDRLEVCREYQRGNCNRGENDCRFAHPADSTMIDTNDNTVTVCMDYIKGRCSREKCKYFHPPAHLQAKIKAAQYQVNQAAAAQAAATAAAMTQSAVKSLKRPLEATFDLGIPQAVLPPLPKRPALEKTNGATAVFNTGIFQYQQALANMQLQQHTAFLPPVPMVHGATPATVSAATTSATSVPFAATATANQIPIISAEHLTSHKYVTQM
Procedure, shortened: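 His-tagged MBNL1 binding to biotinylated (CUG)12 RNA was measured by TR-FRET using terbium anti-His antibody (0.055 ng/ul final) and streptavidin-XL665 (5 nM final). Compounds were titrated 92 nM to 58 uM; 60 min at room temperature.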
In the case of `COc1ccc(S(=O)(=O)NC(CC(=O)NC2CCCC2)c2ccco2)cc1` (stereo unspecified), the “activity change, negative = inhibition” value is reported as inactive: 1.67%. In the case of `CC1(C(=O)O)COC(c2ccc([N+](=O)[O-])cc2)OC1` (stereo unspecified), the Potency is reported as inconclusive: 17.8 µM [quencher, partial curve]. For `COc1ccc(-c2nc(-c3ccc(Br)o3)no2)cc1OC`, the Potency was inconclusive: 2.82 µM [quencher, side channel, single point]. In the case of `CC1(C)Cc2nc3sc(C(=O)NCCCO)c(N)c3cc2CS1`, the Potency is reported as inconclusive: 25.1 µM [quencher, side channel, partial curve]. In the case of `Cc1nc(Cl)cc(N/N=C/c2ccc(O)cc2)n1`, the Potency is reported as inconclusive: 39.8 µM [quencher, side channel, single point]. For `O=C(CSc1nc2ccccc2s1)Nc1ccc(N2CCOCC2)c(Cl)c1`, the Potency was inconclusive: 0.1 µM [fluorescent, side channel, partial curve, poor fit]. `Cc1cc(C)c(S(=O)(=O)/N=C2/C=C(SCC(=O)O)C(=O)c3ccccc32)cc1C` was tested, and the Potency was inconclusive: 25.1 µM [quencher, side channel, partial curve]. For `CCNc1cc(N2CCCC2)ccc1[N+](=O)[O-]`, the Potency was inconclusive: 1.41 µM [quencher, side channel, full curve]. `COc1ccc(OC)c(NC(=O)CSc2nnc(Cc3cccn3C)n2-c2ccc(F)cc2)c1` was tested, and the Potency was inconclusive: 0.141 µM [quencher, side channel, full curve, poor fit]. For `O=C(COC(=O)c1cc(-c2ccc(Cl)s2)nc2ccccc12)NCc1ccco1`, the Potency was inconclusive: 28.2 µM [quencher, side channel, single point]. For `C=CCN(CC=C)S(=O)(=O)c1ccc(NC(=S)NC(=O)/C=C/c2ccccc2)cc1`, the “activity change, negative = inhibition” value was inactive: 2.72%. In the case of `Cc1ncc(CN2CCCC(C(=O)Nc3ccc(-c4ccco4)cc3)C2)cn1` (stereo unspecified), the Potency is reported as inconclusive: 2.51 µM [inhibitor, full curve]. In the case of `C/C(=N\NC(=O)c1nnn(-c2nonc2N)c1CN(C)c1ccccc1)c1ccc(O)cc1`, the “activity change, negative = inhibition” value is reported as inactive: -9.85%. For `Cc1cc(C(=O)N/N=C/C=C/c2ccc([N+](=O)[O-])cc2)n[nH]1`, the Potency was inconclusive: 12.6 µM [quencher, partial curve]. In the case of `CC(=O)N1CCN(c2ccc(NCc3ccc4c(c3)OCO4)cc2)CC1`, the Potency is reported as inconclusive: 31.6 µM [quencher, side channel, single point]. `O=C(N/N=C/c1ccc([N+](=O)[O-])o1)C1CCCC1` was tested, and the Potency was inconclusive: 14.1 µM [quencher, partial curve].
% is scaled to controls: 0 for no effect and ±100 for the full control effect; potency is read from the fitted curve at half-maximal effect; tags tell the direction and shape of the fitted curve or compound fluorescence and quenching.
